“And” between values parts separate entries of the source, which are not always exact repeats. Identical values can stand only once. Hit rate of the full screen: of about 420,000 compounds, about 50,000 (12%) were called active. Inconclusive results, whose numbers are uncertain, are shown with a selection of clear calls. The call rests on the fitted dose curve; in most records, active means well fitted inhibition curve with a large enough effect; inconclusive means small, poorly fitted or top-dose-only effect; inactive means flat fitted curve, though single readings scatter. A potency beside an inconclusive call is a rough fit, not a confirmed value. Some structures have more than one record in an assay (separate samples or runs), and their calls can disagree.
Assay: qHTS for Inhibitors of human tyrosyl-DNA phosphodiesterase 1 (TDP1): qHTS in cells in presence of CPT; further: nearly all actives have a fitted effect of over 55% in size
Conditions: chicken DT40 Tdp1-/-;hTDP1 cells + 20 nM CPT, ATP luminescence, 48 h; activity change, negative = growth inhibition: at 46.2 µM (top of the series) unless noted
Summary of the method: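 Chicken DT40 Tdp1-/- cells stably complemented with human TDP1 were seeded at 400 cells/well in medium containing 20 nM camptothecin, exposed to pin-transferred compounds, and grown at 37 °C for at least 48 hr. Viability was read as ATP luminescence.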
On the % scale 0 is the no-effect control and ±100 the full control effect; potency means the concentration at half of the fitted maximal effect; tags describe the fitted curve by direction and shape.

Compound	Potency	activity change, negative = growth inhibition
COc1ccc(S(=O)(=O)NCc2ccc(C(=O)N3CCC4(CC3)OCCO4)cc2)cc1	inconclusive: 7.94 µM [inhibitor, partial curve]	
CCCNC(=O)N1[C@H]2CC[C@@H]1C(C(=O)OC)=C(c1cccc(OC)c1OC)C2	inactive	
COc1cccc(N2CCN(c3c4c(nc5nncn35)CCC4)CC2)c1	active: 23.1 µM	
Cc1ccc2c(n1)Oc1ccc(C(C)C(=O)OCC(=O)N(C)C)cc1C2 (centres undefined)	inconclusive: 33.5 µM [inhibitor, single point]	
CC1CN1P(=O)(Oc1ccc2ccccc2c1)N1CC1C (centres undefined)	inconclusive: 25.9 µM [inhibitor, single point]	
C=C1CCN([C@@H](CC(C)C)C(=O)Nc2ccc(OC)cc2)S(=O)(=O)c2ccccc21	inconclusive: 18.4 µM [inhibitor, single point]	
COc1ccc(CC(=O)NC(=S)NNC(=O)COc2c(C)cccc2C)cc1	active: 16.4 µM	
CC(C)c1ccc(OCC(=O)N2CCCN(C)CC2)cc1	inactive	
CC(C)CCn1c(N)c(C(=O)OCC2CCCO2)c2nc3ccccc3nc21 (centres undefined)	inconclusive: 25.9 µM [inhibitor, single point]	
CC(C)[C@]1(NC(=O)[C@@H]2C=C3c4cccc5[nH]cc(c45)C[C@H]3N(C)C2)O[C@@]2(O)C3CCCN3C(=O)[C@H](Cc3ccccc3)N2C1=O (some centres undefined)	inconclusive: 29.9 µM [inhibitor, single point]	
C=C1CCC(O)C/C1=C\C=C1/CCCC2(C)C1CCC2C(C)CCCC(C)C (centres undefined)	active: 23.7 µM	
CN1CSC(=S)N(C)C1	active: 6.51 µM	
CCOC(=O)c1c(C)[nH]c(C)c1S(=O)(=O)N1CCC(C(=O)N2CCN(c3ccc(Cl)cc3)CC2)CC1	inconclusive: 18.4 µM [inhibitor, single point]	
O=C(O)c1cc[c]([Hg][Cl])cc1	active: 0.651 µM	
FC(F)(F)c1cccc(N2CCNCC2)c1	inconclusive: 32.6 µM [inhibitor, single point]	
CC(C)CC(C)N (centres undefined)	inactive	
CC(=Nc1ccc2c(c1)CCC2)c1c(O)n(C)c(=O)n(C)c1=O	inactive	
COc1ccc2cc1Oc1ccc(cc1)C[C@H]1c3cc(c(OC)cc3CCN1C)Oc1c(OC)c(OC)cc3c1[C@H](C2)N(C)CC3	active: 5.17 µM [middle of 4 runs]	
CC1=NN=C(c2ccc(N)cc2)c2cc3c(cc2C1)OCO3	active: 29.9 µM	
COc1ccc(C(=O)N2Cc3cnnn3-c3ccccc3C2C#N)cc1 (centres undefined)	inactive	
COc1ccc(N/N=C/c2c(O)n(-c3ccc(C)c(C)c3)c(=O)[nH]c2=O)cc1	inconclusive: 23.1 µM [inhibitor, single point]	
O=[N+]([O-])c1cc(Cl)c(O)c(-[n+]2c(-c3ccccc3)cc(-c3ccccc3)cc2-c2ccccc2)c1	active: 13 µM	
CCSc1nc2n(n1)C(c1ccc(Cl)cc1Cl)C(C(=O)Nc1ccccc1C)=C(C)N2 (centres undefined)	active: 18.4 µM	

Compound	Potency	activity change, negative = growth inhibition
CCOC(=O)CC1c2ccccc2-n2nncc2CN1Cc1ccc(OC)cc1 (centres undefined)	inconclusive: 20.6 µM [inhibitor, single point]	
NC(=O)c1ccc(NC(=O)COC(=O)C2(c3ccccc3F)CCCC2)cc1	inconclusive: 32.6 µM [inhibitor, single point]	
CCc1ccc([C@H]2[C@@H]3C(=O)C[C@@H]4C(=O)N(C5CCCCC5)C(=O)[C@@H]4[C@@H]3CN2S(=O)(=O)c2ccc(C)cc2)cc1	inconclusive: 25.9 µM [inhibitor, partial curve, poor fit]	
CCN(CC)P(=O)(Nc1ccc([N+](=O)[O-])cc1)c1c(C)nn(CCC#N)c1NC(=O)c1ccc(Cl)cc1Cl (centres undefined)	active: 18.4 µM	
CCCCCn1c(=O)c(C(=O)NCc2ccccn2)c(O)c2ccccc21	active: 20.6 µM	
O=C1C2CCCN2C(c2cccnc2)N1c1cccc(Cl)c1 (centres undefined)		inconclusive: -36.5% [inhibitor]
O=[N+]([O-])c1ccc(N2CCNCC2)cc1N1CCCCC1	inconclusive: 29.1 µM [inhibitor, single point]	
C=CCn1c(O)c(C(C)=NCCC(c2ccccc2)c2ccccc2)c(=O)[nH]c1=O	active: 20.6 µM	
COc1ccc(OC)c(N=Cc2c(O)[nH]c(=O)[nH]c2=O)c1	inactive	
CCCn1c2ccccc2c2nnc(SCC(=O)Nc3cccc(C(C)=O)c3)nc21	inconclusive: 18.4 µM [inhibitor, single point]	
C/C=C(\C)C(=O)N[C@@H](c1ccccc1)[C@@H](O)C(=O)O[C@H]1C[C@@]2(O)[C@@H](OC(=O)c3ccccc3)C3[C@](C)(C(=O)[C@H](OC(C)=O)C(=C1C)C2(C)C)[C@H](O)C[C@H]1OC[C@@]31OC(C)=O (some centres undefined)	active: 0.13 µM	
CN(C)c1ccc(CNC(=O)Cn2c(=O)oc3cc(S(=O)(=O)N4CCCCCC4)ccc32)cc1	active: 11.6 µM	
CNC(=O)Oc1cc2c(cc1C(C)(C)C)CCC2	active: 16.4 µM	
Cc1ccc(N(C)C(=O)Oc2ccc(C(=O)c3ccc(Cl)cc3)cc2)cc1	inconclusive: 29.1 µM [inhibitor, single point]	
O=C(c1cc(S(=O)(=O)N2CCOCC2)ccc1F)N1CCC2(CC1)OCCO2	inactive	
O=C(Nc1cccc(C(F)(F)F)c1)C1CCCN1S(=O)(=O)c1cccc2nsnc12 (centres undefined)	active: 18.4 µM	
CN1CCC(OC(=O)Cc2ccccc2)CC1	inactive	
COc1cccc(OC)c1C1=NCC(=O)Nc2c1oc1ccc(Br)cc21	active: 0.92 µM	
CC(C)(c1ccc(O)cc1)c1ccc(O)cc1	inconclusive: 48.6 µM [inhibitor, single point] and inconclusive: 29.1 µM [inhibitor, single point]	
O=C1NC(=O)[C@]2(Cc3ccccc3N3CCN(c4ccccc4)CC32)C(=O)N1Cc1ccccc1 (some centres undefined)	active: 20.6 µM	
CCN1C(=O)N(CC)C(=O)C2(Cc3ccccc3N3CCN(c4ccccc4)CC32)C1=O (centres undefined)	inactive	
CCOC(=O)C(O)(c1ccc(N(C)C(=O)c2ccc(Cl)c(Cl)c2)cc1)C(F)(F)F (centres undefined)	active: 20.6 µM	
Cc1ccc(C(=O)C2C(c3ccc(-c4ccccc4[N+](=O)[O-])o3)NC(=O)NC2(O)C(F)(F)F)cc1 (centres undefined)	inconclusive: 16.4 µM [inhibitor, single point]	

Compound	Potency	activity change, negative = growth inhibition
COc1ccccc1Cc1c(-c2ccc(F)cc2)nc2cc(C)c(Br)c(C)n12	inconclusive: 25.9 µM [inhibitor, single point]	
Cc1c(O)c(O)cc2c1CC=C1[C@]3(C)CC[C@]4(C)CC[C@@](C)(C(=O)O)CC4[C@]3(C)CC[C@]12C (some centres undefined)	active: 7.31 µM	
CCCCn1c(N)c(N(CCOC)C(=O)CN2CC=C(c3ccccc3)CC2)c(=O)[nH]c1=O	inconclusive: 16.4 µM [inhibitor, single point]	
O=S1(=O)OCCC(c2ccccc2)N1Cc1ccccc1 (centres undefined)	inconclusive: 13 µM [inhibitor, partial curve]	
O=S(=O)(c1ccc(Cl)cc1)N1Cc2ccccc2-n2nncc2C1	inconclusive: 29.1 µM [inhibitor, single point]	
CCCCCCN=C(C)c1c(O)n(CCCC)c(=O)[nH]c1=O	inconclusive: 32.6 µM [inhibitor, single point]	
CC(C)(C)c1nc(N2CCN(C(=O)c3ccco3)CC2)c2nnn(Cc3ccccc3Cl)c2n1	inconclusive: 29.1 µM [inhibitor, single point]	
O=C1NC(=S)N(c2ccccc2F)C(=O)/C1=C\c1cccs1	active: 20.6 µM	
CCOC(=O)C1(CCc2ccccc2)CCN(Cc2cccc3c2OCO3)CC1	inconclusive: 25.9 µM [inhibitor, single point]	
CC12CC[C@H]3[C@@H](CCC4(O)C[C@H](O)CCC34/C=N/NC(=O)c3ccccc3[N+](=O)[O-])C1(O)CCC2C1=CC(=O)OC1 (some centres undefined)	inactive	
COc1cc(=O)n2c(c1C(=O)N(C)Cc1nonc1C)CCN(C(=O)C1C(C)(C)C1(C)C)CC2	inactive	
CCC(C)OC(=O)c1c(N)n(Cc2cccs2)c2nc3ccccc3nc12 (centres undefined)	inconclusive: 29.1 µM [inhibitor, single point]	
CCOC(=O)c1nc2ccccc2c(=O)n1-c1cccc(C)c1	inconclusive: 0.651 µM [inhibitor, full curve, poor fit]	
CCOC(=O)[C@]12Cc3ccccc3[C@H]1N(C)C(=O)c1cc(OC)ccc12	active: 23.1 µM	
COc1ccc2c(c1)NP(=S)(Oc1ccccc1)N2 (centres undefined)	inconclusive: 29.1 µM [inhibitor, single point]	
C=CC[C@@H](CC(=O)N[C@H](CO)Cc1ccccc1)C(=O)NCCOC(=O)[C@@H](CC=C)Cc1ccc(F)cc1	active: 29.1 µM	
Cc1ccc(-n2nc3c(=O)n(CC(=O)NCC(C)c4ccccc4)nc(C)c3c2C)cc1 (centres undefined)	active: 20.6 µM	
Cc1cnc(SCc2ccccn2)nc1C1CCCN(C(=O)c2scc3c2CCCC3)C1 (centres undefined)	active: 11.6 µM	
Cc1ccc(-n2nc3c(N4CCC(C(=O)NCc5ccccc5Cl)CC4)nnc(C)c3c2C)cc1	active: 14.6 µM	
COc1ccc(CCNC(=O)CCCCn2c(=O)c3ccccc3n(Cc3ccccc3Cl)c2=O)cc1OC	inconclusive: 18.4 µM [inhibitor, partial curve]	
CC1CC(Cl)CCC1C(=O)OC(C)(C)C (centres undefined)	inactive	
Cn1cc(C(=O)OCC(=O)NC2CCCCC2)c2ccccc21	inactive	
C[C@@H]1CN([C@@H](C)CO)C(=O)CCCn2nncc2CO[C@@H]1CN(C)C(=O)Oc1cccc2ccccc12	active: 0.517 µM	
